# Experimental data as given in paper PMC4336329 (PLoS ONE, 2015).
# Screen size: about 310,000 compounds; about 2,200 (0.71%) showed an effect of 50% or more. The effect is printed as a negative number. The list shows a part of the results.
# Target: human ether-à-go-go-related gene (hERG) potassium channel (human, UniProt Q12809)
# Assay: primary screen, population patch clamp on CHO cells stably expressing hERG
# human ether-à-go-go-related gene (hERG) potassium channel, sequence (Q12809 whole entry, looked up): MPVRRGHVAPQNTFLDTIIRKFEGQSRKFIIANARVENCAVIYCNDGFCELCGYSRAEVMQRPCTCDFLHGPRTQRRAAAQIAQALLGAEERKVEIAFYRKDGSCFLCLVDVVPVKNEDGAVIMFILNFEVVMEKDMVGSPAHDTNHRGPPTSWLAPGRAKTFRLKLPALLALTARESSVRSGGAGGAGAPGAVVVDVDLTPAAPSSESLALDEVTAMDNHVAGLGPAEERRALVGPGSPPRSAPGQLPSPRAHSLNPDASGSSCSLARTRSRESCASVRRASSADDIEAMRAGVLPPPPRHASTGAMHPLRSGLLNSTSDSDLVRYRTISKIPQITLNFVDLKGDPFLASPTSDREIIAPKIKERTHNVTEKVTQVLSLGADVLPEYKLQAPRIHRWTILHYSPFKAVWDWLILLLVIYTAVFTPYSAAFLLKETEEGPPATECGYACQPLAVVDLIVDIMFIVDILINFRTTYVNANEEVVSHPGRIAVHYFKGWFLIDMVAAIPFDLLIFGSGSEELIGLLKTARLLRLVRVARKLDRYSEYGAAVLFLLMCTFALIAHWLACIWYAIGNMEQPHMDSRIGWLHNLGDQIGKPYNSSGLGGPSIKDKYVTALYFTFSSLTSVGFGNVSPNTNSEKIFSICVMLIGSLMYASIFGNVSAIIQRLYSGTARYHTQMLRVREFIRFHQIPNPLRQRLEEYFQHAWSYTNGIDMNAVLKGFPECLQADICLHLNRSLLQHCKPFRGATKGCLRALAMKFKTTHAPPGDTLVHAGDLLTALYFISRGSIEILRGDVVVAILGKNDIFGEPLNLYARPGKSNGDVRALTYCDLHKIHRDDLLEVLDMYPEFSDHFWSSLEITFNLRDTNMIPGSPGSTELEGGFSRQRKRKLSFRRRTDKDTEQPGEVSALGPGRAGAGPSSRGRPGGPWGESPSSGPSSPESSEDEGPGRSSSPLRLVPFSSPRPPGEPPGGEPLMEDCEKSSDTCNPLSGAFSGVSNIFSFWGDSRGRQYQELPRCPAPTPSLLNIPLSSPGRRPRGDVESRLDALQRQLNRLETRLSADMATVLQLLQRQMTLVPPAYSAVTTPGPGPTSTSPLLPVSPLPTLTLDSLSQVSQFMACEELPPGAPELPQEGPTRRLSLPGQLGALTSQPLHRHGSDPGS
row,Structure (SMILES),"hERG current change (%, negative = inhibition) at 1uM [%]"
1,CC(=O)OCCNc1cc(SC(C)C)c2nonc2c1[N+](=O)[O-],3.63
2,O=C(CSc1nnc2scc(-c3ccccc3)n12)N1CCCc2ccccc21,-9.77
3,Cc1cccc(C(=O)OCC(=O)c2c(N)n(CC(C)C)c(=O)n(C)c2=O)c1[N+](=O)[O-],3.03
4,CCNC(=O)CN(C1CCCCC1)S(C)(=O)=O,1.29
5,Cc1c(C)c2ccc(OC(C)C(=O)NCCc3c[nH]c4ccccc34)cc2oc1=O (stereo not drawn),2.89
6,Clc1ccc(CCC(Cn2ccnc2)Sc2c(Cl)cccc2Cl)cc1.O=[N+]([O-])O (stereo not drawn),2.14
7,Cc1ccc(C(=O)OCC(=O)NC2CCCCC2)cc1S(=O)(=O)N1CCCCC1,10.9
8,N/C(=N\OC(=O)COc1ccccc1)c1ccc(Cl)cc1,9.86
9,O=S(=O)(NC1CCCCC1)c1ccc(-c2csnn2)s1,1.02
10,O=C(Nc1ccc(N2CCOCC2)cc1)C1CCN(S(=O)(=O)Cc2ccccc2)CC1,19.2
11,CCOC(=O)c1ccccc1NC(=O)COC(=O)CN1C(=O)NC2(CCCC2)C1=O,1.63
12,CC(=O)OC(COc1ccccc1)Cn1cnc2ccccc21 (stereo not drawn),9.27
13,CCN(C(=O)CCc1nnc2ccc(N3CCC4(CC3)OCCO4)nn12)c1ccccc1,13.1
14,CCCNC(=O)NCCc1ccncc1,3.65
15,CCCNC(=O)NCCc1c(C)[nH]c2ccccc12,9.27
16,Cc1cc(C)c2cc3c(N)c(C(=O)N4CCc5ccccc5C4)sc3nc2c1,16
17,O=C(Nc1cccc([N+](=O)[O-])c1)c1ccc2c(c1)OCO2,3.13
18,COc1cc(N)c(Cc2nccc3cc(OC)c(OC)cc23)cc1OC,7.99
19,COc1ccc(CCN2CN(S(=O)(=O)c3ccccc3)c3nc4ccccc4nc32)cc1,-5.62
20,CCN(CC)c1ccc(-c2nnc(SCC(=O)N(CCOC)c3c(N)n(CC(C)C)c(=O)[nH]c3=O)o2)cc1,-4.49
21,CC(C)CN1C(=O)C(=O)N(CC(=O)N(C)CC(=O)Nc2ccc(F)cc2)C1=O,-2.87
22,COc1ccc(N(Cc2cc3ccccc3[nH]c2=O)S(=O)(=O)c2ccccc2)cc1,14.4
23,O=c1[nH]c(N2CCN(c3ccccc3)CC2)nc2c1CCCC2,9.91

row,Structure (SMILES),"hERG current change (%, negative = inhibition) at 1uM [%]"
1,CCOC(=O)C1=C(C)OC(N)=C(C(=O)OCC)C1c1ccncc1 (stereo not drawn),-1.25
2,CS(=O)(=O)N(CC(=O)N1CCCC1)c1ccc(Cl)cc1Cl,13.1
3,COc1ccccc1C(=O)NC(=O)COC(=O)Cn1[nH]c(=O)c2ccccc2c1=O,7.75
4,CCC1=C(OC(=O)N(CC)CC)N2C(=O)OC(=NCCOC)[C@]2(Cc2ccccc2)[C@H]2C1=CC[C@H]1C(=O)N(C)C(=O)[C@H]12,5.87
5,COc1ccccc1CN1CCC(CNS(=O)(=O)c2cc(-c3cc(C)no3)ccc2OC)CC1,-33.2
6,C/C(=N\NC(=O)c1cccnc1)c1c(O)cc(C)oc1=O,5.67
7,Cc1ccccc1OCC(O)Cn1c2ccccc2c2ccccc21 (stereo not drawn),12.1
8,C(=N\Nc1nc(N2CCOCC2)nc(N2CCOCC2)n1)/c1ccco1,19.9
9,CC(C)Cn1c(N)c(C(=O)COC(=O)c2ccc(O)cc2)c(=O)n(C)c1=O,0.0266
10,CN(C(=O)c1ccc(OC2CCN(CCc3ccccc3)CC2)cc1)C1CCOCC1,1.29
11,O=C(CC(NC(=O)OCc1ccccc1)C(=O)O)OCc1ccccc1 (stereo not drawn),12.5
12,Cc1nc(CCNC(=O)CC2C(=O)NCCN2Cc2ccccc2F)sc1C (stereo not drawn),11.1
13,Cc1ccc(C)c(N2CCN(S(=O)(=O)c3ccc4c(c3)NC(=O)CS4)CC2)c1,11.2
14,CCN(C(=O)COC(=O)c1cc(-c2ccccc2)nn1-c1ccccc1)C1CCS(=O)(=O)C1 (stereo not drawn),-1.42
15,CSc1nc(S(=O)(=O)c2ccc(C)cc2)c(Cl)s1,8.02
16,CC1=C(C(=O)c2ccccc2)C(c2ccc(OC(F)F)cc2)NC(=S)N1 (stereo not drawn),6.14
17,CC1CCN(CCCCOc2ccccc2F)CC1.O=C(O)C(=O)O,7.61
18,O=S(=O)(c1ccc(Cl)cc1)N1CCn2c1nc1ccccc12,-0.183
19,COc1ccc(NC(=O)NCc2ccccn2)cc1,10.1
20,CN1CCN(c2cn[nH]c(=O)c2Cl)CC1,12.5
21,CCCc1ccc(NC(=O)C2CCCN(c3cnccn3)C2)cc1 (stereo not drawn),10.1
22,COc1ccc(C2=NOC(C(=O)NCC(C)C)C2)cc1 (stereo not drawn),7.35
